Experimental data taken from patent EP2791141B1, “Tofacitinib mono-tartrate salt” (ratiopharm GmbH, priority 2011, dated 2013).
Converted amounts (≈) assume the structure as drawn. Values belong to the compound of their own block, whether it stands above or below them.

Tests used:
physchem = settings: thermodynamic from solid
[1] = stirred 1 h at room temperature, filtered, HPLC-UV 290 nm, quantified as Tofacitinib, 60 min

solubility at 1 h (physchem; 0.1 n hcl, pH 1.2, simulated gastric fluid, solubility pH 1.2, 0.1 N HCl (pH 1.2), stirred 1 h at room temperature, filtered, HPLC-UV 290 nm, quantified as Tofacitinib): 361 mg/mL (≈ 1160 mM)
solubility at 1 h (physchem; 20 mm sodium acetate, pH 4.5, aqueous buffer, solubility pH 4.5, 20 mM sodium acetate (pH 4.5), stirred 1 h at room temperature, filtered, HPLC-UV 290 nm, quantified as Tofacitinib): 364 mg/mL (≈ 1170 mM)
solubility at 1 h (physchem; 50 mm potassium dihydrogen phosphate, pH 6.8, aqueous buffer, solubility pH 6.8, 50 mM potassium dihydrogen phosphate (pH 6.8), stirred 1 h at room temperature, filtered, HPLC-UV 290 nm, quantified as Tofacitinib): 377 mg/mL (≈ 1210 mM)
SMILES: C[C@@H]1CCN(C(=O)CC#N)C[C@@H]1N(C)c1ncnc2[nH]ccc12 [TOF-malate, Tofacitinib mono-malate]

solubility at 1 h (physchem; 50 mm potassium dihydrogen phosphate, pH 6.8, aqueous buffer): 353 mg/mL (≈ 1130 mM)
SMILES: C[C@@H]1CCN(C(=O)CC#N)C[C@@H]1N(C)c1ncnc2[nH]ccc12 [TOF-tartrate, Tofacitinib mono-tartrate]

solubility pH 4.5 ([1]; 20 mM sodium acetate (pH 4.5)): 329 mg/ml
solubility pH 6.8 ([1]; 50 mM potassium dihydrogen phosphate (pH 6.8)): 350 mg/ml
solubility pH 1.2 ([1]; 0.1 N HCl (pH 1.2)): 375 mg/ml
SMILES: C[C@@H]1CCN(C(=O)CC#N)C[C@@H]1N(C)c1ncnc2[nH]ccc12 [TOT-oxalate, Tofacitinib mono-oxalate]
